# In PubChem BioAssay AID1030 (National Center for Advancing Translational Sciences (NCATS), 2008):
# Screen size: about 220,000 compounds; about 16,000 (7.3%) were called active. The inconclusive results got no clear call from the source; some entries with a clear call stand among them for comparison. Calls come from the whole dose curve; as a rule, active = well fitted inhibition curve with a large enough effect (not every such curve was filed as active); inconclusive = small, poorly fitted or top-dose-only effect, or another doubt; inactive = no such curve, though single readings can be large or run the other way. Potencies of inconclusive entries are left out as doubtful fits.
# Biological target: Aldehyde dehydrogenase 1A1 (Homo sapiens) (UniProt P00352)
# Assay: qHTS Assay for Inhibitors of Aldehyde Dehydrogenase 1 (ALDH1A1)
# Conditions: Purified ALDH1A1, NADH fluorescence, propionaldehyde substrate; series mostly up to 75.3 µM
# Potency is the fitted concentration of half-maximal effect; tags give direction and shape of the fitted curve.
# UniProt P00352, sequence (P00352 whole entry, looked up): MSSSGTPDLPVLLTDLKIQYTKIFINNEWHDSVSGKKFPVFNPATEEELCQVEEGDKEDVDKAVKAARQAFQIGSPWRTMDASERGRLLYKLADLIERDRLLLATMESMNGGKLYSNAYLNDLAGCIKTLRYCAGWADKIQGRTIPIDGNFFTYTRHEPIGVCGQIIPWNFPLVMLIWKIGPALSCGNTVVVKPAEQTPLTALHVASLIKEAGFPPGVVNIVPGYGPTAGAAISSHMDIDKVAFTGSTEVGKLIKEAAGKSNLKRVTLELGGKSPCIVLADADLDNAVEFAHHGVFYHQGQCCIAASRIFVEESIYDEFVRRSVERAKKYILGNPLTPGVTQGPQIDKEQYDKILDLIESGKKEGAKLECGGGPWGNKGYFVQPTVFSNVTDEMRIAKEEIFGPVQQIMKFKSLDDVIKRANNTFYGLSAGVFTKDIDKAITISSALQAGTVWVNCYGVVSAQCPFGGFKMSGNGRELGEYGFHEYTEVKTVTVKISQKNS
row,SMILES,Potency
1,CCNc1ncc2ncc(=O)n(CCc3ccccc3)c2n1,"inconclusive [inhibitor, partial curve]"
2,O=S(=O)(c1cccc2nsnc12)N1CCc2ccccc21,"inconclusive [inhibitor, partial curve]"
3,O=C(/C=C/c1cc([N+](=O)[O-])ccc1OC(F)F)Nc1cccc2ccccc12,"inconclusive [inhibitor, single point]"
4,COCc1cc(C)nc(N/N=C/c2ccc(-c3cc(C(=O)O)ccc3Cl)o2)c1C#N,"inconclusive [inhibitor, partial curve]"
5,COc1ccc(NC(=S)NC(=O)c2ccc(Br)o2)cc1,active: 11.2 µM
6,CCOc1cc(C(=O)N(C)Cc2cc3ccccc3[nH]c2=O)cc(OCC)c1OCC,inactive
7,CCC1(C(=O)OC)NC(c2ccco2)C2C(=O)N(c3ccc(C)cc3)C(=O)C21 (configuration not stated),inactive
8,CC(=O)c1ccc(N2CCN(C(=O)CCS(=O)(=O)c3ccc(C)cc3)CC2)cc1,"inconclusive [inhibitor, single point]"
9,O=C(O)c1cc(=O)c2cc(Cl)ccc2o1,"inconclusive [inhibitor, single point]"
10,Cc1ccc(S(=O)(=O)N2CCCCC2)cc1NC(=O)CSc1ncn[nH]1,"inconclusive [inhibitor, partial curve]"
11,Cc1ccc(C)c(NC(=O)Cc2ccc(S(=O)(=O)N3CCCCC3)s2)c1,"inconclusive [inhibitor, partial curve]"
12,Cc1ccc(S(=O)(=O)NCCNc2ccc([N+](=O)[O-])cc2C(F)(F)F)cc1,"inconclusive [inhibitor, single point]"
13,COCCn1c(-c2ccccc2)nc2ccccc21,inactive
14,Cc1ccccc1NC(=S)NC(C)C(c1cccs1)N1CCOCC1 (configuration not stated),inactive
15,CC(C)n1c(-c2ccc(C(C)(C)C)cc2)n[nH]c1=S,"inconclusive [inhibitor, full curve]"
16,C#CCOCCOCCOCCNc1nc(N2CCN(C(=O)[C@H](CCCCN)n3cc([C@@H](N)C(C)CC)nn3)CC2)nc(N2CCN(C(=O)[C@H](CCCCN)n3cc([C@@H](N)CO)nn3)CC2)n1 (some centres not stated),"inconclusive [inhibitor, single point]"
17,COc1ccccc1N=C1SCC(=O)N1c1ccccc1OC,active: 20 µM
18,CCOC(=O)C1=C2NC(=O)c3ccccc3N2C(=O)C1,active: 25.1 µM
19,CCOC(=O)C1CCCCN1C(=O)CCc1c(C)nc2cc(-c3ccccc3)nn2c1C (configuration not stated),"inconclusive [inhibitor, partial curve]"
20,CCOC(=O)N1CCN(C(=S)Nc2ccc3nc(N4CCN(CC)CC4)cc(C)c3c2)CC1,"inconclusive [inhibitor, partial curve]"
21,O=C(Nc1ccc(Oc2ccccc2)cc1)C1CCN(c2c3c(nc4ncnn24)CCC3)CC1,"inconclusive [inhibitor, partial curve]"
22,CN1C(=O)C(O)(CC(=O)/C=C\c2ccc3c(c2)OCO3)c2ccccc21 (configuration not stated),inactive
23,O=C1CC(c2ccccc2)c2cc(O)ccc2O1 (configuration not stated),"inconclusive [inhibitor, single point]"
24,CCN(C(=O)c1ccc2c(Cl)c3c(nc2c1)CCC3)c1ccc(C)c(C)c1,active: 14.1 µM

row,SMILES,Potency
1,O=C(COc1ccc2c(c1)C(=O)CC1(CCCCC1)O2)NCc1ccccn1,"inconclusive [inhibitor, partial curve]"
2,O=C(NCc1ccco1)C1CCN(c2ccc(N3CCOCC3)nn2)CC1,"inconclusive [inhibitor, single point]"
3,CCc1nnc(NC(=O)CN2CCN(c3ccccc3OC)CC2)s1,"inconclusive [inhibitor, single point]"
4,CCn1cc(C2=NC(C(C)C)CO2)c2ccccc21 (configuration not stated),inactive
5,Cc1cccc(-n2c(Cn3nc(C)c([N+](=O)[O-])c3C)n[nH]c2=S)c1,active: 25.1 µM
6,O=C(Nc1ccc2[nH]c(=O)[nH]c2c1)Nc1ccc(F)cc1F,"inconclusive [inhibitor, single point]"
7,C[C@H](NC(=O)c1nc[nH]c1C(=O)N[C@@H](Cc1ccccc1)C(=O)OC(C)(C)C)c1ccccc1,active: 17.8 µM
8,COc1ccc(N=C2SCC(=O)N2Cc2ccccc2)cc1,"inconclusive [inhibitor, single point]"
9,Cc1cc(NC(=O)CCC(=O)N(CC(=O)NCC2CCCO2)c2ccc3c(c2)OCCO3)no1 (configuration not stated),inactive
10,C=CCn1cc(C(=O)NCC2CCCO2)c(=O)c2cc(S(=O)(=O)N3CCCCCC3)ccc21 (configuration not stated),active: 12.6 µM
11,CCOC(=O)c1cnn(-c2nc(-c3ccc(F)cc3)cs2)c1C(F)(F)F,"inconclusive [inhibitor, single point]"
12,O=C(c1ccccc1)c1ccccc1N/C=C/c1nnnn1-c1ccccc1,"inconclusive [inhibitor, partial curve]"
13,COC(=O)c1ccc(C(=O)OC)c(NC(=S)N2CCCC(C)C2)c1 (configuration not stated),"inconclusive [inhibitor, single point]"
14,CNC(=O)COC(=O)c1ccccc1NC(=O)c1ccco1,"inconclusive [inhibitor, single point]"
15,O=C(O)C1Cc2ccccc2CN1S(=O)(=O)c1ccc2ccccc2c1 (configuration not stated),inactive
16,O=[N+]([O-])c1cccc(/C=C/c2ccccn2)c1,"inconclusive [inhibitor, single point]"
17,CCc1cc(=O)oc2cc(C)c(CN3CCCC(C)C3)c(O)c12 (configuration not stated),"inconclusive [inhibitor, partial curve]"
18,O=C(CN1CCN(c2ccc(O)cc2)CC1)Nc1cc(S(=O)(=O)N2CCOCC2)ccc1Cl,active: 25.1 µM
19,CC(=O)Nc1cc(C(=O)O)ccc1S(=O)(=O)c1ccc(Cl)cc1,"inconclusive [inhibitor, single point]"
20,CCOC(=O)COc1cc(N)c(Cl)cc1Cl,inactive
21,CC(C)c1nnc(SCC(=O)NCCC2=CCCCC2)n1N,active: 20 µM
22,Nc1[nH]c(N=NC(=O)c2ccccc2)c2ccccc12,"inconclusive [inhibitor, single point]"
23,O=C(NCc1ccc(F)cc1)C1CCN(S(=O)(=O)N2CCCC2)CC1,"inconclusive [inhibitor, single point]"
24,O=C(Nc1ccc(N2CCCC2)c(Cl)c1)c1ccc(Br)o1,active: 18.9 µM

row,SMILES,Potency
1,Cc1ccc(-n2nc3c4c(cccc4c2=O)-c2ccccc2-3)cc1,"inconclusive [inhibitor, single point]"
2,NC(=O)N/N=C/c1c(Sc2nnnn2-c2ccccc2)nc2ccccn2c1=O,"inconclusive [inhibitor, partial curve]"
3,Cc1cccc(NC(=O)COC(=O)CNC(=O)C2CCCCC2)c1,"inconclusive [inhibitor, single point]"
4,CCOC(=O)c1c(NC(=O)CN2C(=O)NC3(CCCCC3)C2=O)sc(C)c1-c1ccc(C)cc1,"inconclusive [inhibitor, single point]"
5,COc1ccccc1/C=C1\S/C(=N/NC(=O)c2cccc(Br)c2)NC1=O,inactive
6,COc1ccc2nc3oc(C(=O)N4CCC(C(N)=O)CC4)cc3cc2c1,"inconclusive [inhibitor, partial curve]"
7,CC(=O)N/C(=C\c1ccccc1)C(=O)OCC(=O)N(C)C1CCCCC1,inactive
8,COc1ccccc1NC(=O)COC(=O)C1CCN(/C=C/C(=O)C(F)(F)F)CC1,inactive
9,Cc1ccccc1CSCC(=O)Nc1ccccc1-c1ccccc1,"inconclusive [inhibitor, partial curve]"
10,O=C(CC(NC(=O)C(F)(F)F)c1ccccc1)Nc1nnc(CCc2ccccc2)s1 (configuration not stated),inactive
11,Cc1ccc(S(=O)(=O)Nc2nc3ccc(S(C)(=O)=O)cc3s2)cc1,"inconclusive [inhibitor, single point]"
12,C=CCn1c(SC2CCOC2=O)nc2sc(C)c(C)c2c1=O (configuration not stated),inactive
13,O=C(Cc1ccccc1)NNC(=S)Nc1ccc(Cl)cc1,active: 25.1 µM
14,CC(NS(=O)(=O)c1ccc(Cl)cc1)C(=O)NCc1ccco1 (configuration not stated),inactive
15,Cc1cccc(/C=N/NC(=O)Cn2nnnc2N)n1,inactive
16,O=C(/C=C/c1ccc(Cl)cc1Cl)NCCSCc1ccccc1,inactive
17,CC(=O)CC1(OC(C)=O)C(=O)N(C)c2ccccc21 (configuration not stated),"inconclusive [inhibitor, single point]"
18,CC(C)(C)c1ccc(C(=O)CSc2ncn[nH]2)cc1,active: 20 µM
19,COC(=O)CCCNS(=O)(=O)c1ccc2ccccc2c1,"inconclusive [inhibitor, single point]"
20,Cc1noc(C)c1-c1cc(Nc2ccccc2)ncn1,"inconclusive [inhibitor, single point]"
21,CC(C)(C)c1ccc(SCC(N)=O)cc1,"inconclusive [inhibitor, single point]"
22,C/C(=C\c1ccccc1)C1NC(=O)c2c(sc3c2CCCC3)N1 (configuration not stated),"inconclusive [inhibitor, single point]"
23,CCc1nc(SCC(=O)c2cc(C)ccc2C)n[nH]1,"inconclusive [inhibitor, single point]"
24,Cc1ccc(-c2nc(CS(=O)CC(=O)NC3CCC(C)CC3)c(C)o2)cc1 (configuration not stated),"inconclusive [inhibitor, single point]"
